Source: PubChem BioAssay AID2147 (National Center for Advancing Translational Sciences (NCATS), 2009)
Among all 230,000 compounds or so, about 3,600 (1.6%) were called active. This list was built around the results that the source calls inconclusive (neither active nor inactive); the mix of calls is not that of the screen. The call rests on the fitted dose curve; in most records, active means well fitted inhibition curve with a large enough effect (not every such curve was filed as active); inconclusive means small, poorly fitted or top-dose-only effect, or another doubt; inactive means no such curve, though single readings can be large or run the other way. Potencies of inconclusive entries are doubtful fits and often do not repeat.

Biological target: Lysine-specific demethylase 4E (Homo sapiens) (UniProt B2RXH2)
Test: qHTS Assay for Inhibitors of Human Jumonji Domain Containing 2E (JMJD2E)
Conditions: JMJD2E catalytic domain, FDH-coupled NADH fluorescence (FDH is formaldehyde dehydrogenase); series mostly up to 57.1 µM; activity change, negative = inhibition: at the top concentration
Further: nearly all actives have a fitted effect of over 50% in size.
Potency means the concentration at half of the fitted maximal effect; tags describe the fitted curve by direction and shape.
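Wherever activity change, negative = inhibition is given: 0% = wells with enzyme and -100% = buffer wells without enzyme.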

Chain of UniProt B2RXH2 (B2RXH2 whole entry, looked up, the tested form may be a part): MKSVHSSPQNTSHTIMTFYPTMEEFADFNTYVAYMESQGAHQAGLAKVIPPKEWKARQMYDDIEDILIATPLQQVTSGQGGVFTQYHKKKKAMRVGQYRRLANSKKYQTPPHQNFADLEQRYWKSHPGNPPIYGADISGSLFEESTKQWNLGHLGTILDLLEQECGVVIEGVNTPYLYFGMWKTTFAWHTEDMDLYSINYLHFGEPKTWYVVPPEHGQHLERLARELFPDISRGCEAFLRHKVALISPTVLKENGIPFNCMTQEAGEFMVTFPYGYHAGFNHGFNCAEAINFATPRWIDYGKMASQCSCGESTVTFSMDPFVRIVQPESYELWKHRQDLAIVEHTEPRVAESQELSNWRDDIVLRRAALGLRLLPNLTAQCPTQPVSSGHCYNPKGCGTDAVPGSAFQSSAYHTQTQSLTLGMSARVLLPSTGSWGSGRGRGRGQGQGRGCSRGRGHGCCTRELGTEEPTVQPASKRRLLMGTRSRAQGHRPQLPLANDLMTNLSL

Question: With `COCCCn1c(SCc2nnc(-c3ccc(OC)c(OC)c3)o2)nc2ccccc2c1=O` as the compound, how does the “activity change, negative = inhibition” value read?
Answer: Its value is inactive: -0.252%.

Question: Which Potency does the source give for `CCOC(=O)Cc1cc(=O)n2[nH]cc(-c3cccc(Br)c3)c2n1` here?
Answer: The Potency was inconclusive: 35.5 µM [inhibitor, partial curve].

Question: Which “activity change, negative = inhibition” value does the source give for `CN(CCC#N)C(=O)CSc1nnc(-c2ccco2)n1N` here?
Answer: The value was inactive: 0.925%.

Question: For `CN(C)c1ccc(/C=N/NC(=O)c2cccc(N3CCCC3=O)c2)cc1`, which Potency is on record?
Answer: The Potency was inconclusive: 39.8 µM [inhibitor, single point].

Question: With `CN(Cc1nc(-c2cnccn2)no1)Cc1n[nH]c2c1CCCC2` as the compound, how does the “activity change, negative = inhibition” value read?
Answer: Its value is inactive: 2.1%.

Question: How did the Potency turn out when `CN(C(=O)c1cccc(N2C(=O)C3CC=CCC3C2=O)c1)C1CCCCC1` (stereo not given) was run?
Answer: The Potency was inconclusive: 31.6 µM [inhibitor, partial curve].

Question: `O=C(NCC1CCCO1)c1cccc(N2CCCC2=O)c1` (stereo not given) was tested. Which “activity change, negative = inhibition” value did it give?
Answer: The value was inactive: 3.46%.

Question: With `COc1ccc(OCC(=O)Nc2cc(-c3nn(C)c(=O)c4ccccc34)ccc2OC)cc1` as the compound, how does the Potency read?
Answer: The Potency was inconclusive: 39.8 µM [inhibitor, single point].

Question: How did the “activity change, negative = inhibition” value turn out when `O=C(CCC1CCCC1)N1CCC(N2CCCCCC2)CC1` was run?
Answer: Its value is inactive: -3.8%.

Question: Which Potency does the source give for `Cc1cnc(NC(=O)c2sc3ccccc3c2Cl)s1` here?
Answer: The Potency was inconclusive: 35.5 µM [inhibitor, single point].

Question: Which Potency does the source give for `CCn1c(-c2sc(-c3ccccc3)nc2C)n[nH]c1=S` here?
Answer: The Potency was inconclusive: 28.2 µM [inhibitor, partial curve].

Question: Which “activity change, negative = inhibition” value does the source give for `Cc1cccc(N2CC(O)=C(c3nc4ccccc4n3C)C2=N)c1` here?
Answer: The value was inactive: 2.75%.

Question: How did the “activity change, negative = inhibition” value turn out when `c1ccc(N(c2ccccc2)c2nc(N3CCCC3)nc(-n3ccnc3)n2)cc1` was run?
Answer: Its value is inactive: -26.7%.

Question: With `CC1(C)CC(=O)c2cnc(NC(=O)CSC(=S)N3CCCCC3)nc2C1` as the compound, how does the “activity change, negative = inhibition” value read?
Answer: The value was inactive: 5.86%.

Question: For `OCC1(CO)COC(c2ccccc2)=N1`, which “activity change, negative = inhibition” value is on record?
Answer: Its value is inactive: -4.47%.

Question: For `COC(=O)Nc1nnc(-c2ccccc2OC)s1`, which Potency is on record?
Answer: Its Potency is inconclusive: 28.2 µM [inhibitor, partial curve].

Question: How did the Potency turn out when `C[C@@H](C(=O)NCc1ccc(S(C)(=O)=O)cc1)[C@H]1C[C@]1(C)[C@H](NC(=O)OCc1ccccc1)c1ccccc1` was run?
Answer: Its Potency is “inactive”.

Question: `Cc1ccc2[nH]c(=O)c(COC(=O)c3cccs3)cc2c1` was tested. Which Potency did it give?
Answer: Its Potency is inconclusive: 11.2 µM [inhibitor, partial curve].

Question: For `C=CCn1c(SCC(N)=O)nc2nc3c(cc2c1=O)COC(C)(C)C3`, which Potency is on record?
Answer: The Potency was inconclusive: 31.6 µM [inhibitor, partial curve].

Question: `N#Cc1ccc(-c2ccc(Cl)cc2)nc1SCC(=O)c1cccc(Cl)c1` was tested. Which Potency did it give?
Answer: The Potency was inconclusive: 31.6 µM [inhibitor, single point].

Question: `CCN1C(=O)C(CC(=O)Nc2ccc(OC)cc2)N(CCN2CCOCC2)C1=S` (stereo not given) was tested. Which Potency did it give?
Answer: Its Potency is inconclusive: 39.8 µM [inhibitor, single point].

Question: For `CCCNC(=O)Cc1c(C)oc2ccccc12`, which “activity change, negative = inhibition” value is on record?
Answer: The value was inactive: 6.8%.

Question: For `CCOC(=O)c1c(-c2ccccc2Cl)cn2ccccc12`, which Potency is on record?
Answer: Its Potency is inconclusive: 35.5 µM [inhibitor, partial curve].

Question: With `CC(C)(C)C(=O)Nc1ccc(S(=O)(=O)Nc2ccccn2)cc1` as the compound, how does the Potency read?
Answer: Its Potency is inconclusive: 35.5 µM [inhibitor, single point].

Question: `COc1ccc2nc(NC(=O)Nc3cccc4ccccc34)sc2c1` was tested. Which Potency did it give?
Answer: The Potency was inconclusive: 28.2 µM [inhibitor, partial curve].

Question: `CS(=O)(=O)N1CCN(c2ccc([N+](=O)[O-])c(SCc3ccco3)c2)CC1` was tested. Which “activity change, negative = inhibition” value did it give?
Answer: Its value is inactive: 5.87%.

Question: Which Potency does the source give for `CCN(CC)CCN1C(=O)c2ccccc2NC1c1cccc(F)c1` (stereo not given) here?
Answer: The Potency was inconclusive: 25.1 µM [inhibitor, partial curve].

Question: How did the “activity change, negative = inhibition” value turn out when `COc1ccc(S(=O)(=O)NCc2ccc3c(c2)cc(C)n3C)cc1` was run?
Answer: The value was inactive: -6.61%.

Question: For `COc1ccc(S(=O)(=O)NNC(=O)c2cc3c4ccccc4n(C)c3s2)cc1`, which Potency is on record?
Answer: The Potency was inconclusive: 31.6 µM [inhibitor, single point].

Question: With `COC(=O)c1ccccc1NC(=O)N1CCN(C(=O)c2ccco2)CC1` as the compound, how does the Potency read?
Answer: The Potency was inconclusive: 31.6 µM [inhibitor, single point].

Question: `CCn1c(/C=C/c2ccccc2)nc2ccccc21` was tested. Which Potency did it give?
Answer: Its Potency is inconclusive: 31.6 µM [inhibitor, partial curve].

Question: For `O=C(Nc1ccc2c(c1)OCCO2)C1CCN(c2ncccn2)CC1`, which Potency is on record?
Answer: The Potency was inconclusive: 25.1 µM [inhibitor, single point].

Question: With `O=C(/C=C/c1ccc2c(c1)OCO2)NCCSCc1ccc(Cl)cc1` as the compound, how does the Potency read?
Answer: The Potency was inconclusive: 35.5 µM [inhibitor, single point].

Question: For `Cc1cc(N2CCN(C(=O)c3ccco3)CC2)n2nc(-c3cccc(Cl)c3)cc2n1`, which Potency is on record?
Answer: The Potency was inconclusive: 31.6 µM [inhibitor, single point].

Question: `COc1ccc(C(=O)/C=C/C(=O)N(CC(=O)NC2CCCCC2)CC2CCCO2)c(O)c1` (stereo not given) was tested. Which Potency did it give?
Answer: Its Potency is inconclusive: 39.8 µM [inhibitor, single point].

Question: Which “activity change, negative = inhibition” value does the source give for `COc1ccc(NC(=O)Nc2ccc(F)cc2)c(C)c1` here?
Answer: Its value is inactive: 0.644%.

Question: `COc1ccc(/C=C/C(=O)c2ccc(O)cc2O)cc1` was tested. Which “activity change, negative = inhibition” value did it give?
Answer: Its value is inactive: -0.741%.

Question: How did the Potency turn out when `CC(=O)N(C(C)=O)n1c(/C=C/c2ccc([N+](=O)[O-])cc2)nc2ccccc2c1=O` was run?
Answer: The Potency was inconclusive: 28.2 µM [inhibitor, single point].

Question: How did the Potency turn out when `CCOCCn1c(CN2CCC(Cc3ccccc3)CC2)nc2c1c(=O)n(C)c(=O)n2C` was run?
Answer: The Potency was inconclusive: 39.8 µM [inhibitor, single point].

Question: `CC(C)(C)SCCNS(=O)(=O)c1ccc(Cl)cc1` was tested. Which Potency did it give?
Answer: The Potency was inconclusive: 39.8 µM [inhibitor, single point].

Question: For `COc1ccc(C(CNC(=O)c2cc(=O)[nH]c3ccccc23)N2CCCC2)cc1` (stereo not given), which Potency is on record?
Answer: The Potency was inconclusive: 28.2 µM [inhibitor, partial curve].

Question: How did the Potency turn out when `CCc1ccccc1Cn1c(=O)oc2cccnc21` was run?
Answer: Its Potency is inconclusive: 11.2 µM [inhibitor, partial curve].

Question: Which Potency does the source give for `CCc1ccc2[nH]c(=O)c(CN(CCN(CC)CC)C(=O)NC3CCCCC3)cc2c1` here?
Answer: Its Potency is inconclusive: 39.8 µM [inhibitor, single point].

Question: For `CCC(Sc1nc2n[nH]c(C)c2c(=N)n1-c1ccc(C)c(Cl)c1)C(=O)N1CCOCC1` (stereo not given), which Potency is on record?
Answer: The Potency was inconclusive: 39.8 µM [inhibitor, single point].

Question: Which Potency does the source give for `CCc1nnc(N/N=C/c2ccc(N3CCC(C)CC3)c([N+](=O)[O-])c2)n1N` here?
Answer: The Potency was inconclusive: 3.16 µM [inhibitor, partial curve].
